{
  "source": "the BET-seq Pho4 binding data (Le et al. 2018)",
  "note": "The other results are listed elsewhere or left out. The energies were worked out here from pooled read counts, against the library average; single values are noisy.",
  "data": [
    {"target": "T1, Pho4 (S. cerevisiae) (UniProt P07270)", "T1 sequence": "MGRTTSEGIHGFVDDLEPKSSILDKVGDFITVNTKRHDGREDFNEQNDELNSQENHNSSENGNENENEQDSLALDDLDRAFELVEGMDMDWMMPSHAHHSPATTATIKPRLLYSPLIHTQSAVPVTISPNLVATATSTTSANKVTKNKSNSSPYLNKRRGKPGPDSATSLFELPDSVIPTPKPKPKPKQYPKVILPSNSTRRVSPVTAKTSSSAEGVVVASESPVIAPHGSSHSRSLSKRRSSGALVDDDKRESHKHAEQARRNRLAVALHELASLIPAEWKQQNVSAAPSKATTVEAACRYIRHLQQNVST", "assay": "relative binding free energy (BET-seq); higher = weaker binding", "details": "reference: library average", "units": {"relative binding free energy": "kcal/mol"}, "values": [
      {"sequence": "TTTAACACGTGTTACT", "relative binding free energy": -0.11},
      {"sequence": "GTGAACACGTGTGCTA", "relative binding free energy": 0.19},
      {"sequence": "TGGTACACGTGTGGGC", "relative binding free energy": 0.2},
      {"sequence": "TGTGTCACGTGGGATA", "relative binding free energy": 0.1},
      {"sequence": "ATGGGCACGTGATAAA", "relative binding free energy": 0},
      {"sequence": "GCGCTCACGTGTTGGG", "relative binding free energy": 0.18},
      {"sequence": "GTTTTCACGTGTTTGA", "relative binding free energy": 0.35},
      {"sequence": "ATGGGCACGTGCTCGG", "relative binding free energy": -0.14},
      {"sequence": "TGTTACACGTGTGGGG", "relative binding free energy": 0.19},
      {"sequence": "GTTTTCACGTGGTCGT", "relative binding free energy": 0.27},
      {"sequence": "GGATGCACGTGGGATA", "relative binding free energy": -0.06},
      {"sequence": "ATTGGCACGTGTCAAT", "relative binding free energy": -0.11},
      {"sequence": "GATGCCACGTGGTTGT", "relative binding free energy": -0.03},
      {"sequence": "GGATACACGTGGTTGT", "relative binding free energy": 0.01},
      {"sequence": "TAGAGCACGTGCTGTG", "relative binding free energy": 0},
      {"sequence": "TTTGTCACGTGTGTTC", "relative binding free energy": 0.21},
      {"sequence": "TGTTACACGTGTGTAT", "relative binding free energy": 0.13},
      {"sequence": "GAGGTCACGTGCTGGA", "relative binding free energy": 0.14},
      {"sequence": "TAATGCACGTGTATGC", "relative binding free energy": -0.01},
      {"sequence": "TGGGTCACGTGGGATC", "relative binding free energy": 0.08},
      {"sequence": "CTTGGCACGTGGGGGT", "relative binding free energy": -0.13},
      {"sequence": "AGGGCCACGTGAAGTT", "relative binding free energy": 0.27},
      {"sequence": "GCTTACACGTGTGAGG", "relative binding free energy": 0.12},
      {"sequence": "TCGTGCACGTGGCTTA", "relative binding free energy": -0.01},
      {"sequence": "TATTTCACGTGCGATG", "relative binding free energy": 0.2},
      {"sequence": "GTTCGCACGTGTTAGA", "relative binding free energy": 0.07},
      {"sequence": "CAGGGCACGTGGGCCG", "relative binding free energy": -0.18},
      {"sequence": "CAGGTCACGTGAGTTG", "relative binding free energy": 0.38},
      {"sequence": "TAGCTCACGTGTATAT", "relative binding free energy": 0.26},
      {"sequence": "AAAGTCACGTGAAGTG", "relative binding free energy": 0.3},
      {"sequence": "ATTAGCACGTGTTGTC", "relative binding free energy": -0.1},
      {"sequence": "TCGAACACGTGTGGTT", "relative binding free energy": -0.04},
      {"sequence": "TGTAGCACGTGGGACG", "relative binding free energy": -0.19},
      {"sequence": "AGGTGCACGTGTAGTT", "relative binding free energy": 0.13},
      {"sequence": "TATTACACGTGTTGGT", "relative binding free energy": 0.17},
      {"sequence": "GTGAGCACGTGAAGAT", "relative binding free energy": 0.25},
      {"sequence": "TATGGCACGTGGATTG", "relative binding free energy": 0.05},
      {"sequence": "TGTTGCACGTGATGCA", "relative binding free energy": 0.02},
      {"sequence": "GGGGACACGTGTCTTT", "relative binding free energy": 0.03},
      {"sequence": "GATCGCACGTGTTATG", "relative binding free energy": 0.16},
      {"sequence": "TAGCTCACGTGTTTGT", "relative binding free energy": 0.18},
      {"sequence": "TGTATCACGTGCGTTT", "relative binding free energy": 0.11},
      {"sequence": "TTGTACACGTGGTGGG", "relative binding free energy": 0.04},
      {"sequence": "GATATCACGTGTGTAA", "relative binding free energy": 0.14},
      {"sequence": "TTGCTCACGTGGGGGC", "relative binding free energy": 0.09},
      {"sequence": "CGAGTCACGTGATTGT", "relative binding free energy": 0.2},
      {"sequence": "GGTGCCACGTGGTTCG", "relative binding free energy": -0.04},
      {"sequence": "TTTTTCACGTGGACGT", "relative binding free energy": 0.3},
      {"sequence": "GTTTGCACGTGTATAG", "relative binding free energy": 0.14},
      {"sequence": "TCTATCACGTGGTTGA", "relative binding free energy": -0.06},
      {"sequence": "ATATGCACGTGGTAGA", "relative binding free energy": -0.1},
      {"sequence": "GCTGGCACGTGAGGGG", "relative binding free energy": 0.26},
      {"sequence": "TTAAACACGTGCTGGG", "relative binding free energy": -0.15},
      {"sequence": "TCTGGCACGTGAATTT", "relative binding free energy": 0.14},
      {"sequence": "TGGGACACGTGGGATT", "relative binding free energy": -0.05},
      {"sequence": "GGTTTCACGTGTAAAG", "relative binding free energy": 0.29},
      {"sequence": "AGTATCACGTGGAATA", "relative binding free energy": 0.28},
      {"sequence": "CAATGCACGTGTGGTG", "relative binding free energy": 0.03},
      {"sequence": "CGAGGCACGTGATAGG", "relative binding free energy": -0.1},
      {"sequence": "TGGGCCACGTGCTGGA", "relative binding free energy": -0.13},
      {"sequence": "ATTGACACGTGAGGTT", "relative binding free energy": 0.19},
      {"sequence": "TGTCACACGTGTCGGT", "relative binding free energy": 0.07},
      {"sequence": "AGTAGCACGTGGAACG", "relative binding free energy": 0.12},
      {"sequence": "TTTGTCACGTGCTCGA", "relative binding free energy": 0.07},
      {"sequence": "TAATACACGTGCGTTT", "relative binding free energy": 0.07},
      {"sequence": "TTGTTCACGTGCCTTG", "relative binding free energy": 0.19},
      {"sequence": "GTAGGCACGTGAAAGG", "relative binding free energy": 0.27},
      {"sequence": "GTAAGCACGTGATTGT", "relative binding free energy": 0.26},
      {"sequence": "TATTGCACGTGAGAAT", "relative binding free energy": 0.26},
      {"sequence": "GTCGGCACGTGAAGGT", "relative binding free energy": 0.27},
      {"sequence": "ATAAACACGTGGTTGT", "relative binding free energy": -0.08},
      {"sequence": "GGGATCACGTGGGGGA", "relative binding free energy": 0.06},
      {"sequence": "TGTACCACGTGGTTTA", "relative binding free energy": -0.15},
      {"sequence": "GGGTTCACGTGTTATC", "relative binding free energy": 0.34},
      {"sequence": "TGAAGCACGTGCAGGG", "relative binding free energy": -0.16},
      {"sequence": "ATAAGCACGTGTAGGT", "relative binding free energy": -0.15},
      {"sequence": "AATGACACGTGATTGG", "relative binding free energy": 0.1},
      {"sequence": "TTGTACACGTGTAATA", "relative binding free energy": 0.11},
      {"sequence": "ATGGTCACGTGATATT", "relative binding free energy": 0.28},
      {"sequence": "AAAGGCACGTGTGAGA", "relative binding free energy": -0.08},
      {"sequence": "GATTTCACGTGAGGGG", "relative binding free energy": 0.52},
      {"sequence": "TGCTTCACGTGTTGGC", "relative binding free energy": 0.1},
      {"sequence": "GTTTGCACGTGACAGT", "relative binding free energy": 0.01},
      {"sequence": "ATGTGCACGTGTCTAG", "relative binding free energy": 0.04},
      {"sequence": "ATTTCCACGTGGGAGG", "relative binding free energy": 0.05},
      {"sequence": "GTTGACACGTGTTTCG", "relative binding free energy": 0.11},
      {"sequence": "GGGACCACGTGGGGTC", "relative binding free energy": -0.16},
      {"sequence": "GGGGTCACGTGTTATT", "relative binding free energy": 0.18},
      {"sequence": "GTCTGCACGTGCTTGT", "relative binding free energy": -0.02},
      {"sequence": "TGAATCACGTGGGGGG", "relative binding free energy": 0.07},
      {"sequence": "GAACTCACGTGGAGGG", "relative binding free energy": 0.3},
      {"sequence": "CGGTACACGTGGTTAG", "relative binding free energy": -0.04},
      {"sequence": "GGAAGCACGTGAGGTG", "relative binding free energy": 0.1},
      {"sequence": "AGTTTCACGTGTGAGT", "relative binding free energy": 0.22},
      {"sequence": "GCTGTCACGTGATATG", "relative binding free energy": 0.24},
      {"sequence": "GAGACCACGTGGGAGG", "relative binding free energy": -0.05},
      {"sequence": "TTCTTCACGTGGAAGG", "relative binding free energy": 0.38},
      {"sequence": "GCCGGCACGTGGATGG", "relative binding free energy": -0.08},
      {"sequence": "TTTTGCACGTGTTCAT", "relative binding free energy": -0.03},
      {"sequence": "TGGGGCACGTGGTTTA", "relative binding free energy": -0.13},
      {"sequence": "CTGGGCACGTGAGCGT", "relative binding free energy": 0.16},
      {"sequence": "TTAAGCACGTGGTGAT", "relative binding free energy": -0.07},
      {"sequence": "TGTGTCACGTGTATCA", "relative binding free energy": -0.01},
      {"sequence": "TTGGACACGTGGGCCG", "relative binding free energy": -0.06},
      {"sequence": "GGGGTCACGTGCAGGT", "relative binding free energy": 0.17},
      {"sequence": "GTTGACACGTGGGGGT", "relative binding free energy": -0.1},
      {"sequence": "TAGGGCACGTGGCTAT", "relative binding free energy": -0.08},
      {"sequence": "TAAGGCACGTGTAGAA", "relative binding free energy": -0.02},
      {"sequence": "ACAGGCACGTGGTGCG", "relative binding free energy": -0.18},
      {"sequence": "CGTGGCACGTGGAGGG", "relative binding free energy": -0.12},
      {"sequence": "TTGAGCACGTGAATGT", "relative binding free energy": 0.33},
      {"sequence": "TGGACCACGTGTATGT", "relative binding free energy": -0.1},
      {"sequence": "TAGTACACGTGGTGCG", "relative binding free energy": -0.15},
      {"sequence": "GTTGGCACGTGAAACT", "relative binding free energy": 0.1},
      {"sequence": "TCCGGCACGTGTGGTT", "relative binding free energy": 0.05}
    ]}
  ]
}
